Measured values published in PubChem BioAssay AID588855 (National Center for Advancing Translational Sciences (NCATS), 2011).
Among all 410,000 compounds or so, about 5,000 (1.2%) were called active. The shares of active, inactive and inconclusive entries below differ from those in the screen. Calls follow the shape of the dose curve; as a rule, active = well fitted inhibition curve with a large enough effect; inconclusive = small, poorly fitted or top-dose-only effect; inactive = no such curve, though single readings can be large or run the other way. A potency beside an inconclusive call is a rough fit, not a confirmed value.

Experiment: qHTS for Inhibitors of TGF-b; also: nearly all actives have a fitted effect of over 65% in size
Conditions: HepG2 CAGA-GFP TGF-b/SMAD3 reporter, GFP fluorescence, 18 h, TGF-beta stimulated, 500 pg/mL final; series mostly up to 46.1 µM
In short: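 Smad-responsive CAGA-GFP expression was quantified in HEPG2 cells exposed to compounds and 500 pg/mL final TGF-beta for 18 h at 37 degrees C; unstimulated wells defined full inhibition.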
Potency is read from the fitted curve at half-maximal effect; tags tell the direction and shape of the fitted curve.

| Compound | Potency |
| --- | --- |
| O=C(/C=C/c1ccccc1)Oc1ccc(C(=S)N2CCOCC2)cc1 | inactive |
| N#Cc1ncc(Cc2ccccc2)nc1C#N | inconclusive: 35.5 µM [inhibitor, single point] |
| CCC(=O)Oc1ccc2c(C)cc(=O)oc2c1C(=O)c1ccccc1 | inconclusive: 35.5 µM [inhibitor, single point] |
| C[C@@H]1CCC[C@]2(O[C@@H](CCO)C[C@@H](O)[C@@H]2O)O1 | inactive |
| CCOc1ccccc1NC(=O)CN1c2ccccc2S(=O)(=O)c2ccccc21 | inconclusive: 6.31 µM [inhibitor, single point] |
| Cc1cc(C)cc(NC(=O)C(NCCN2CCOCC2)c2ccccc2)c1 (stereo unspecified) | inconclusive: 6.31 µM [inhibitor, single point] |
| O=C1CCc2cc(S(=O)(=O)N3CCN(c4ccc(F)cc4)CC3)cc3c2N1CC3 | inactive |
| CCCCC(=O)OC1=C(C(=O)c2ccccc2)N(C)S(=O)(=O)c2ccccc21 | active: 17.8 µM |
| COc1ccc(-c2csc3ncnc(N4CCN(c5ccccc5OC)CC4)c23)cc1 | inconclusive: 20 µM [inhibitor, single point] |
| COCCn1c(=O)sc2ccccc2c1=O | inactive |
| CCCCCCCCNC(C)C(O)c1ccc(SC(C)C)cc1 (stereo unspecified) | inconclusive: 35.5 µM [inhibitor, single point] |
| O=C(Nc1nnc(C2CC2)s1)c1ccc(Cl)c(S(=O)(=O)N2CCc3ccccc3C2)c1 | inconclusive: 17.8 µM [inhibitor, single point] |
| CC(C)CC(=O)NC(=S)Nc1ccc(S(=O)(=O)N2CCCC2)cc1 | inactive |
| O=C(NCC(=O)N1CCN(S(=O)(=O)c2ccc3c(c2)OCCO3)CC1)c1ccccc1F | inactive |
| CC(=O)Nc1ccc(S(=O)(=O)Nc2c(C)n(C)n(-c3ccccc3)c2=O)cc1 | inactive |
| O=C(Cc1ccc(S(=O)(=O)N2CCOCC2)s1)N1CCN(S(=O)(=O)c2ccccc2F)CC1 | inactive |
| Cc1ccc(NC(=S)NCCSc2ccc(Cl)cc2)cc1 | inconclusive: 15.8 µM [inhibitor, single point] |
| CCCCN(C(=O)c1ccc(-c2ccc(Cl)cc2)o1)c1c(N)n(CCC)c(=O)[nH]c1=O | inactive |
| C[C@H](CO)N1C[C@H](C)[C@@H](CN(C)Cc2ccc(Cl)c(Cl)c2)Oc2c(NS(=O)(=O)c3ccc(F)cc3)cccc2C1=O | inconclusive: 10 µM [inhibitor, partial curve, poor fit] |
| CN(C)c1ccc(C(=O)OCC(=O)Nc2cccc(S(=O)(=O)N3CCCC3)c2)cc1 | inactive |
| COc1ccc(N(C)S(=O)(=O)c2cccc3cccnc23)c(OC)c1 | inconclusive: 2.51 µM [inhibitor, partial curve, poor fit] |
